In PubChem BioAssay AID360 (National Center for Advancing Translational Sciences (NCATS), 2006):
Screen size: about 48,000 compounds; about 550 (1.1%) were called active. Roughly 4% stayed inconclusive and do not appear here. Rule as the data show it: active = potency below about 15 µM; inconclusive = mostly about 16 µM to 33 µM; inactive = weaker than that. Some of the results follow.

Target: Lysosomal acid glucosylceramidase (Homo sapiens) (UniProt P04062)
Assay: Glucocerebrosidase;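 also: the screen sought inhibitors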
Settings: purified enzyme, resorufin glucoside fluorescence (screen aimed at inhibitors), 20 min
Summary of the method: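 Wild-type enzyme at 0.2 nM final in 50mM citric acid/KH2PO4, 10mM sodium taurocholate, 0.01% tween-20, pH 5.9, with resorufin beta-D-glucopyranoside at 30 uM final. Compounds titrated, 20 min at RT, red fluorescence read; AC50 from titration.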
Potency is read from the fitted curve at half-maximal effect.

UniProt P04062, sequence (P04062 whole entry, looked up): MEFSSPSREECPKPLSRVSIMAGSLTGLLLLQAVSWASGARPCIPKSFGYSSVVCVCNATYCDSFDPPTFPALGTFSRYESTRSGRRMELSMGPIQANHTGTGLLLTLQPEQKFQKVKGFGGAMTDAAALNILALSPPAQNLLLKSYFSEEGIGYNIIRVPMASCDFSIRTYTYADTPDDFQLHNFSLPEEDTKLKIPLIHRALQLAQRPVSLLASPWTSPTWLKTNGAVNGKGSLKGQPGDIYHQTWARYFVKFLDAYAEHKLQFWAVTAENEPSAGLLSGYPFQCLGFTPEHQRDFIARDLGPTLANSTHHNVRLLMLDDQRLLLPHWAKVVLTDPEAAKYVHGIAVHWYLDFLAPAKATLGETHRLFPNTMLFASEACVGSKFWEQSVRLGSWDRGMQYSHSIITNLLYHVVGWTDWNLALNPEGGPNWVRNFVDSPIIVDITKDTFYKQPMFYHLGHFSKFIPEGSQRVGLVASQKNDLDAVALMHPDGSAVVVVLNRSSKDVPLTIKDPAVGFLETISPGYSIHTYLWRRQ

SMILES | Potency
Cc1ccc(C(c2nnnn2C(C)(C)C)N2CCc3ccccc3C2)cc1 (centres undefined) | inactive: > 76.9 µM
C=CCn1c(NCc2ccc3c(c2)OCO3)nc2ccccc21 | inactive: > 76.9 µM
CC(C)(C)OC(=O)N1CCC[C@H]1c1nnc(SCc2c(Cl)cccc2Cl)o1 | inactive: > 76.9 µM
Cc1nc2ccc(-c3ccccc3)cc2o1 | inactive: > 76.9 µM
CCCCCn1c(N)c(C#N)c2nc3ccccc3nc21 | active: 2.68 µM
CS(=O)(=O)c1ccc(C(=O)NC2CCOC2=O)cc1 (centres undefined) | inactive: > 76.9 µM
O=C(CN(Cc1ccc2c(c1)OCO2)C(=O)CNS(=O)(=O)c1ccccc1)NCc1ccco1 | inactive: > 76.9 µM
COc1cc2cc(C(c3nnnn3C(C)(C)C)N3CCc4ccccc43)c(=O)[nH]c2cc1OC (centres undefined) | inactive: > 76.9 µM
O=C(CN1C(=O)c2ccccc2S1(=O)=O)N1CCN(c2cccc(Cl)c2)CC1 | inactive: > 76.9 µM
Cc1cc(C)c2cc(CN(CCN3CCCC3)C(=O)Nc3ccc(F)cc3)c(=O)[nH]c2c1 | inactive: > 76.9 µM
CC(Sc1ccccc1)C(=O)Nc1cccc(N(C)S(C)(=O)=O)c1 (centres undefined) | inactive: > 76.9 µM
CCOP(=O)(c1ccc(N(C)C)cc1)C(O)c1ccc(Cl)cc1 (centres undefined) | inactive: > 76.9 µM
O=C(C1=C(O)C(=O)N(Cc2ccccc2)C1c1ccncc1)c1ccco1 (centres undefined) | inactive: > 76.9 µM
CN=C(Nc1cc(C)nn1CCC#N)c1ccccc1F | inactive: > 76.9 µM
Cc1cc(S(=O)(=O)Nc2ccccc2C(=O)O)ccc1Cl | inactive: > 76.9 µM
COc1ccc(-n2nc(C(=O)NCC(=O)N3CCN(c4ccccn4)CC3)c3ccccc3c2=O)cc1 | inactive: > 76.9 µM
CC(=O)Nc1ccc(S(=O)(=O)NCC2CCC(C(=O)N3CCN(c4ccccn4)CC3)CC2)cc1 (centres undefined) | inactive
CCCCOC(=O)Nc1nnc(CCOCC)s1 | inactive: > 76.9 µM
O=C(CCCCCn1c(=O)[nH]c2ccsc2c1=O)N1CCCCC1 | inactive: > 76.9 µM
O=C(CN(Cc1ccccc1)C(=O)CCC(=O)Nc1ccccn1)NCc1ccco1 | inactive: > 76.9 µM
O=C(c1cccs1)N1CCN(S(=O)(=O)Cc2ccccc2)CC1 | inactive: > 76.9 µM
COc1ccccc1-c1nc(C#N)c(N2CCc3ccccc3C2)o1 | inactive: > 76.9 µM
CCC1C2CN(C(C)=O)CC=C2C(C#N)=C(N)C1(C#N)C#N (centres undefined) | inactive: > 76.9 µM
CC(C)OC(=O)CSc1nnc(-c2cnccn2)n1-c1ccc(Cl)cc1 | inactive: > 76.9 µM
